This is one part of the list. For part of these data: At the low end of the ranking the order means little. For part of these data: Measured with an extract: partners may take part in the binding.
How the values were obtained:
Settings in all cases: 20 mM HEPES pH 7.9, 100 mM NaCl, 1 mM DTT, 0.2 mg/mL BSA, 0.02% Triton X-100, 2% milk, 0.4 mg/mL salmon testes DNA; 1 h; temperature not stated; high values mean tight binding; double strand, one strand shown; sequences stand for … in GCCTAGCAC…GTGCTAGGTCTTGATTCGCTTGACGCTGCTG
PU.1 (IVT) = PU.1 (IVT) (UniProt P17947); assay: protein-binding microarray (PBM)
[1] = biological target: T1, FLI1 (endogenous, THP-1 nuclear extract) (UniProt Q01543); assay: nuclear extract protein-binding microarray (nextPBM)
T1 sequence: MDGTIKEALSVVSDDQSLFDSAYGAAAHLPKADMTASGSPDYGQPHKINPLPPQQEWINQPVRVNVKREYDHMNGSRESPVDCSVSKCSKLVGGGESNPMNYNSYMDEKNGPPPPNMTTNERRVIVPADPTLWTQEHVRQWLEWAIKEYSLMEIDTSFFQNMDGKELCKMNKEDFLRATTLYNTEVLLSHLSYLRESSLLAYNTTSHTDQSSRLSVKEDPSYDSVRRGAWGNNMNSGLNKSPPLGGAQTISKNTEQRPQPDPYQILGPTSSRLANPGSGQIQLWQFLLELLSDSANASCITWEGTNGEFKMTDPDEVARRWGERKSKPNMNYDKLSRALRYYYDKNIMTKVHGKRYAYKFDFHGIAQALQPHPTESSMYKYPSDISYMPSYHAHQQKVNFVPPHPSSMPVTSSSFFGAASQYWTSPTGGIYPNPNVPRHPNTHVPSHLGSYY

[2] = system: PU.1 (endogenous, THP-1 nuclear extract) + IRF8 (endogenous, THP-1 nuclear extract); assay: as above

| Sequence | binding signal (PU.1 (IVT)) | binding signal [1] | binding signal [2] |
| --- | --- | --- | --- |
| TGGCAGAGGAAGTGAAACCA | 3.52 z-score | 3.74 z-score | 49.6 z-score |
| TGGCAGAGGAACTGAAACTA | 1.47 z-score | 1.38 z-score | 35.3 z-score |
| AGAAAAGGGAAGCGAAACTT | 4.18 z-score | 3.24 z-score | 53.3 z-score |
| CTGGCAGGGAACGGAAACTC | 0.518 z-score | 3.59 z-score | 2.69 z-score |
| CTGGCAGGGAACTGAAGCTC | 0.405 z-score | -0.455 z-score | 0.463 z-score |
| TGAAACAGGACGTGAAACCA | 0.207 z-score | 1.56 z-score | 5.04 z-score |
| CTGCCAGGGAACTGAAACTC | 0.185 z-score | -0.0882 z-score | 10.3 z-score |
| ATGCCAGGGAAGTGAAAGCA | 1.31 z-score | 0.724 z-score | 5.59 z-score |
| AGAACAAGGAAGTGAAACTT | 4.68 z-score | 2.79 z-score | 57.9 z-score |
| AAAAAGAGGAAGGGAAACTG | 5.59 z-score | 2.77 z-score | 11.5 z-score |
| GATAAGAGGAACGGAAAGCT | 1.18 z-score | 1.5 z-score | 0.187 z-score |
| AAAAAAAGGAAGTGAAAGTA | 6.78 z-score | 3.78 z-score | 51.4 z-score |
| GAGAAGAGGAACTGAAACTA | 4.41 z-score | 3.1 z-score | 52.2 z-score |
| TAAAGGAGGAACCGAAACCA | 2.42 z-score | 2.24 z-score | 79.6 z-score |
| TGAAGGAGGAACTGAAACCA | 3.35 z-score | 1.93 z-score | 39.7 z-score |
| ACCTCTGGGAACTGAAACTG | 0.249 z-score | 0.198 z-score | 13.6 z-score |
| GCCTTGGGGAAGTGAAACTT | 3.47 z-score | 2.41 z-score | 49.2 z-score |
| TAAAGGAGGAAATGAAACCA | 2.45 z-score | 2.71 z-score | 29.6 z-score |
| GAAAAGAGGAACTGAAAGCT | 7.31 z-score | 3.55 z-score | 21.9 z-score |
| TCAATGGGGAAGTGAAACTT | 5.44 z-score | 3.65 z-score | 60.8 z-score |
| TGCCGGAGGAAGTGAAACTC | 2.26 z-score | 2.81 z-score | 41.6 z-score |

— paper PMC6451091
